Results taken from the supplement of paper PMC3334620.
In all, about 33,000 sequences were measured (“E-score (-0.5 to 0.5)”: median about -0.01, highest 2% from about 0.26 on). The list shows a part of the results.

Target: Ste12 (UniProt P13574)
Test: PBM E-score (8-mer binding enrichment) (E-score (-0.5 to 0.5)); higher = stronger / more preferred TF binding; most listed sequences are background and not binding sites
Details: protein concentration: 200 nM; construct: GST-DNA-binding domain
Method in brief: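 Full-length yeast transcription factors or their DNA-binding domains, GST-tagged and expressed with PURExpress, were applied at about 100-200 nM to universal all-10-mer Agilent arrays. These arrays had been made double-stranded by primer extension on fresh or once-stripped slides. Detection used fluorescent anti-GST, normalisation used masliner, and E-scores for ungapped eight-base words pooled with reverse complements came from the Universal PBM Analysis Suite.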

Sequence | PBM E-score
GAGTGCTA | -0.0599
ATCTATAG | 0.0127
CTGATCCA | 0.0655
ACATCAAG | 0.0747
GCGCTCCA | -0.101
GACCCGCA | -0.232
CCTACTCC | -0.0851
GAGGGGAA | 0.0394
ACGTACTA | -0.0348
CGATTCTC | -0.157
GGCCCACC | -0.103
AGACCCCT | -0.25
ATCAATGA | 0.0644
ATTCTTGG | 0.117
ATTAAACC | 0.156
CGGACGAA | 0.123
ACGGGCCC | -0.199
GGACTTGA | -0.354
CGCATCGC | -0.171
GAATCTCC | 0.0651
CCCTTCTC | -0.181
CTTGTGTA | 0.0226
CCGAAAGA | 0.134
ACCTCCTC | -0.0965
CCTACGAA | -0.00146

Sequence | PBM E-score
GAAGGTCA | -0.0998
CCGTTCAC | -0.184
CGACGGAG | 0.084
ATTGATGG | 0.24
CACCGGTG | 0.0993
ATCGTCGC | -0.177
CAGCGCGG | 0.0481
GACAATAA | 0.0795
CTAGTAAC | 0.0924
CGACACTC | -0.116
ATCCTCCG | -0.0456
CAGTTAGG | -0.0508
AGTCTTAG | -0.141
AAATAGGG | 0.194
GGCACTTA | -0.157
TACGCCGA | -0.0362
CACAGCTG | -0.0152
CTCACGGC | 0.0191
ATTGTACC | 0.00466
GGTACCGA | -0.207
AGCTCAGC | -0.398
AACCATCG | 0.164
ACGCAGGG | -0.0649
AAGCGGGG | -0.116
CGTTTAAG | 0.165

Sequence | PBM E-score
CGCACTGC | 0.0271
AAATTTAC | 0.197
GAAAAACC | 0.22
CTCGGTGC | -0.0947
AAATGTGT | 0.181
AGACGTCT | 0.0034
AGCGAATA | 0.0711
TCAATGCA | -0.107
CTGATGTA | 0.166
GTGAATCA | -0.0548
AACTGTAC | -0.0609
CCGGCCCC | -0.033
GTTATACA | -0.0393
GGGTAAAC | 0.119
GAACAGTA | -0.0707
ACCAGGGT | -0.0707
CAGAATGG | 0.0221
ACCTTGAG | 0.00829
AACTCCGC | -0.0808
CAGACCTA | -0.0484
CAACGACA | 0.00954
CCTTAGTA | -0.123
ACGGGGAG | 0.109
CGTAACAG | 0.205
ATTCAAAG | 0.145

Sequence | PBM E-score
CGCGGGTC | 0.128
CGCAAGGC | 0.049
ATCCTACA | 0.00602
CGGAGCAC | -0.115
ATCATGCG | 0.0662
AACGTCAC | -0.0238
GGGCGCAA | 0.085
GGATTATA | 0.0754
GATAAATA | 0.215
GGCTAAAC | 0.188
TGGTTGAA | 0.0241
CACCGAAG | -0.093
ATGATCCC | 0.0717
AGTTCGAG | 0.0795
AAATTCAC | 0.187
ATGCCCAC | 0.0583
CGGTTCTA | -0.0133
CTCCAACC | 0.149
CACCGCCA | 0.0129
GCGTCGCC | -0.0467
CAATTGCC | -0.0411
GGATCACA | -0.155
TAGAGAGA | -0.164
CCCCAGGG | -0.178
ACAAATCA | 0.0844

Sequence | PBM E-score
AGAGATGG | 0.048
GTGATAAC | 0.091
CAGACCCC | -0.338
ACCTCTGG | 0.0713
AAACCCTA | 0.0499
AGTAACAG | 0.103
GACGAATC | 0.00366
CGCTCATA | -0.0661
AGATACCC | -0.0442
AAGCCCGG | -0.0297
ACATGAGC | -0.0857
GAACGATA | -0.00391
CGGGGGCA | -0.0771
CAACCAAG | -0.00981
CTCGAAAA | 0.0773
CAAAAACG | 0.177
ACTCTTCA | 0.04
ACCGGTTG | -0.0726
CGTCTCTC | -0.016
GTGACGCA | -0.181
AAGTATAC | 0.0374
ACGTCTGG | -0.129
ACTCCCCC | -0.202
ACTTGAAC | -0.0517
CACTAATG | 0.122

Sequence | PBM E-score
ACCAGTCT | -0.25
ATCTTAGA | 0.226
ATTATGTA | 0.117
ATACGCTA | 0.0954
AGACGGAG | -0.164
GATATGAA | 0.15
CACAGCGA | 0.0278
CCGTTACC | 0.0387
GTCGAATA | 0.0131
CATAATGG | 0.0987
GTAAAAAA | 0.217
TGGCTAAA | 0.0428
GTGCGCCA | -0.268
GATCAAAA | 0.194
AAACGAAG | 0.192
CGACGTTC | -0.233
CTCTGCAA | -0.0864
ATTCCTAA | 0.136
TGTCATAA | 0.129
GCGACTCC | -0.308
AGCAATGC | -0.115
AGTCGATA | 0.0748
AGATGGGA | 0.0549
AGACAGAT | -0.0621
ATAAGGCC | -0.263

Sequence | PBM E-score
AGTCTGGG | -0.0681
AACACGGC | 0.0148
AACTCTTG | -0.111
CCTTGTTA | -0.0774
ATACCATC | -0.061
ATCTGATG | 0.109
GCGGAAAC | 0.0514
ATAATCGG | 0.173
ACGGTGTA | -0.073
CGTCCCCC | -0.361
AGTCGTTA | 0.0846
CTAGTTGC | 0.00134
GCGCACAA | 0.103
AAGAATAT | 0.0884
ACAGTGCG | -0.14
GAGCGATA | -0.00925
ACTCCTCG | 0.0579
ATCTCGAC | 0.0726
CGCAGATA | -0.0283
GAATGGCA | -0.068
CAGGAGGA | -0.222
GACTACAA | -0.102
ACGAGCGA | 0.0716
TCCGTACA | 0.0902
AGGCAGTA | -0.082

Sequence | PBM E-score
TAACGAAA | 0.298
GAACATAC | 0.00565
ACAAAAAC | 0.201
GGCAACAC | -0.0149
GTATCTAA | 0.204
CCCCCGAG | -0.0168
AGGCCCGG | -0.253
AGAAGTTA | 0.0794
AGCGTACA | -0.282
ATCATGGG | 0.0931
CCCAATCG | -0.00616
ACCAGCGT | -0.236
CACAAGCA | -0.145
GGGCAACA | -0.00131
GATGATAA | 0.143
ATTCAAGG | -0.0529
AACTGAGA | -0.0335
AAAAGGTG | -0.0244
ATACTAGG | 0.119
ATCACGCG | -0.0384
AAGGGCCC | -0.11
GATCATCC | -0.18
ACAATTAG | 0.0572
CCCGCACC | 0.0672
AACCGGAT | 0.136

Sequence | PBM E-score
ATGTTCCG | 0.0569
GGGGTTAA | -0.0545
CGGACGGA | -0.213
AGAGACAT | 0.0522
AGTGACGA | 0.178
CACGTCCG | -0.138
AGAGTTTA | 0.12
GAGTGTAC | -0.112
GTAGCACA | -0.0739
ACCAATCC | 0.202
AAACTGGT | 0.212
CCTTGAAC | -0.125
GACACTGA | 0.105
ACAAGGCC | -0.177
AGCTGGAT | -0.0353
CTTATACA | 0.0205
CTGATTTA | 0.0833
CTCAAATA | -0.0402
GGTAAGAC | -0.0504
